Source: PubChem BioAssay AID686979 (National Center for Advancing Translational Sciences (NCATS), 2013)
Among all 420,000 compounds or so, about 50,000 (12%) were called active. Inconclusive results, whose numbers are uncertain, are shown with a selection of clear calls. Calls follow the shape of the dose curve; as a rule, active = well fitted inhibition curve with a large enough effect; inconclusive = small, poorly fitted or top-dose-only effect; inactive = flat fitted curve, though single readings scatter. Potencies of inconclusive entries are left out as doubtful fits.

Assay: qHTS for Inhibitors of human tyrosyl-DNA phosphodiesterase 1 (TDP1): qHTS in cells in presence of CPT; also: nearly all actives have a fitted effect of over 55% in size
Conditions: chicken DT40 Tdp1-/-;hTDP1 cells + 20 nM CPT, ATP luminescence, 48 h; activity change, negative = growth inhibition: at 46.2 µM (top of the series) unless noted
In short: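 Chicken DT40 Tdp1-/- cells complemented with human TDP1, 400 cells/well, exposed to compounds plus 20 nM camptothecin for at least 48 h at 37 C; viability read as ATP content by CellTiter-Glo luminescence.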
% is scaled to controls: 0 for no effect and ±100 for the full control effect; potency is read from the fitted curve at half-maximal effect; tags tell the direction and shape of the fitted curve.

| SMILES | activity change, negative = growth inhibition | Potency |
| --- | --- | --- |
| COc1cccc(OC)c1NC(=O)C1CCCN1C(=O)Nc1ccccc1Cl (centres undefined) | inconclusive: -3.38% [inhibitor] | – |
| Cc1c(C#N)c(N=CN(C)C)c(C(=O)c2ccccc2)n1-c1ccccc1 | – | inconclusive [inhibitor, single point] |
| CC(=O)NC(C)(c1ccccc1)c1nc(-c2ccc(S(C)(=O)=O)cc2)cs1 (centres undefined) | – | inconclusive [inhibitor, partial curve] |
| O=C(O)c1ccc(-c2ccccc2)[nH]c1=O | – | inconclusive [inhibitor, single point] |
| CCOc1ccccc1Oc1coc2cc(O)ccc2c1=O | inactive: -20.9% | – |
| CCCc1cc(-c2n[nH]c(C)c2-c2ccc(C(=O)OCC)o2)c(O)cc1O | inconclusive: -38.1% [inhibitor] | – |
| COc1ccccc1-c1noc(-c2ccc(NCc3ccco3)c([N+](=O)[O-])c2)n1 | – | active: 11.6 µM |
| CCOC(=O)c1c(NC(=O)CSc2nc(C)cc(C)c2C#N)sc(C(C)=O)c1C | – | active: 9.2 µM |
| O=[N+]([O-])c1ccc(Cl)c(/C=N/n2c(COc3ccccc3)n[nH]c2=S)c1 | – | active: 18.4 µM |
| CCCCOCCCNC(=O)C[C@@H]1C[C@@]2(C(=O)OC)CCCCC=C2N(Cc2ccccc2)C1=O | – | active: 18.4 µM |
| O=C(O)c1cccc(N2C(=O)c3cccc(Oc4ccc(Cl)cc4)c3C2=O)c1 | inactive: -21.8% | – |
| CCCCn1c(N)c(N(C)C(=O)c2ccc(Br)o2)c(=O)[nH]c1=O | inactive: -14.9% | – |
| Cn1c(C(=O)N2CCN(Cc3ccc4c(c3)OCO4)CC2)cc2sccc21 | – | inconclusive [inhibitor, partial curve] |
| CCCCNc1ccc2oc(-c3ccc(OC)cc3)c(-c3ccc(OC)c(F)c3)c2c1 | – | inconclusive [inhibitor, single point] |
| O=C1NCCN1CCNS(=O)(=O)c1ccc2ccccc2c1 | inactive: -12.2% | – |
| Cc1cccc(C)c1OCC(=O)Nc1ccccc1C(F)(F)F | – | inconclusive [inhibitor, single point] |
| CC(C)OC(=O)c1ccc(OC(=O)c2cccnc2)cc1 | – | inconclusive [inhibitor, partial curve, poor fit] |
| COc1ccccc1NC(=O)COC(=O)c1cc([N+](=O)[O-])ccc1N1CCCC1 | – | inconclusive [inhibitor, single point] |
| Cn1nc(C(C)(C)C)cc1C(=O)NCc1ccc(N2CCCC2=O)cc1 | – | active: 3.26 µM |
| CC1CC(C)CN(C(=O)C2CCCN(c3ncnc4c3nc3n4CCCCC3)C2)C1 (centres undefined) | – | active: 23.1 µM |
| O=C(NCc1ccccc1Cl)c1cnc(N2CCOCC2)c2ccccc12 | – | inconclusive [inhibitor, single point] |
| O=C(/C=C/c1ccccc1)Nc1ccc(CN2CCOCC2)cc1 | – | inconclusive [inhibitor, single point] |

| SMILES | activity change, negative = growth inhibition | Potency |
| --- | --- | --- |
| COc1cccc(CNC(=O)[C@@H]2CCCN2C(=O)[C@H]2CCCCN2C(=O)c2cccc3ccccc23)c1 | – | inconclusive [inhibitor, single point] |
| COc1ccc(/C=N/NC(=O)c2ccn[nH]2)cc1COc1ccc(Cl)cc1Cl | – | inconclusive [inhibitor, single point] |
| CCOC(=O)c1nn2c(C(F)(F)F)cc(-c3ccc(OC)cc3)nc2c1Br | – | inconclusive [inhibitor, single point] |
| O=C(NC(c1ccccc1)c1ccc2ccccc2n1)C1CCN(Cc2cccc(C(F)(F)F)c2)CC1 (centres undefined) | – | active: 7.31 µM |
| COc1ccc(C(=O)Nc2cc(OC)c(NC(=O)c3ccco3)cc2OC)cc1 | – | inconclusive [inhibitor, single point] |
| CCN(Cc1ccccc1)Cc1c(O)ccc2c(=O)c(-c3ccc(Cl)cc3)coc12 | – | inconclusive [inhibitor, single point] |
| O=C1CCCc2ccccc2N1Cc1ccccc1 | – | active: 13 µM |
| CCOC(=O)[C@@H]1[C@H]2COc3ccccc3[C@H]2N2C(=O)N(c3ccc(Br)cc3)C(=O)[C@]12C | inconclusive: -31.3% [inhibitor] | – |
| CCN1CCN(c2ccc(S(=O)(=O)N3CCCCC3)cc2NC(=O)c2ccc(OC(F)F)cc2)CC1 | – | inconclusive [inhibitor, single point] |
| O=C(C1CCC(Cn2c(=O)c3sccc3n(Cc3ccccc3)c2=O)CC1)N1CCCCC1 (centres undefined) | – | inconclusive [inhibitor, single point] |
| COc1cc(C(C)=O)ccc1OCC(=O)N1CCCC1c1ccc2c(c1)OCCCO2 (centres undefined) | inactive: -5.85% | – |
| COc1ccc(NC(=O)CN(C)C(=O)CN2C(=O)NC3(CCCCC3)C2=O)cc1 | – | inconclusive [inhibitor, partial curve] |
| COc1cc(CN2CCCC(C(=O)Nc3ccccc3Oc3cccnc3)C2)ccc1F (centres undefined) | – | inconclusive [inhibitor, single point] |
| CCCCCC(=O)Nc1ccc(C(=O)COC(=O)c2ccccn2)cc1 | – | inconclusive [inhibitor, partial curve, poor fit] |
| CO[C@@H]1CN(C)C(=O)c2ccc(NS(=O)(=O)c3c(C)noc3C)cc2OC[C@@H](C)NC[C@@H]1C | inactive: -7.65% | – |
| Cc1cc(C)c2nc(N(CCCN(C)C)C(=O)c3ccc4c(c3)OCCO4)sc2c1 | – | active: 13 µM |
| O=C1c2ccccc2C(=O)c2cc(S(=O)(=O)Nc3ccccc3)ccc21 | – | active: 14.6 µM |
| CCOc1ccc(NC(=O)CCc2nc3cccnc3n2-c2ccccc2)cc1 | – | inconclusive [inhibitor, partial curve] |
| CCn1c(N2CCN(C(c3ccccc3)c3ccccc3)CC2)nc2c1c(=O)[nH]c(=O)n2C | inactive: 12% | – |
| Cc1c(C)n(CCCN(C)C)c2ncnc(Nc3ccc(F)cc3)c12 | inactive: -7.11% | – |
| O=C(CCN1C(=O)/C(=C/c2ccccc2Cl)SC1=S)NC1C=CS(=O)(=O)C1 (centres undefined) | – | active: 18.4 µM |
| COc1ccc(S(=O)(=O)N2CN(Cc3ccco3)c3nc4ccccc4nc32)cc1 | – | inconclusive [inhibitor, single point] |
